# Measured values reported in the supplement of paper PMC8728848.
# This is one part of the list.
# B1: Clone730PsrP (Streptococcus pneumoniae) (protein)
# chain: MDHHHHHHHHHHASENLYFQGAMVVGSQTAAATEATAKKVEEDRKKPASDYVASVTNVNLQSYAKRRKRSVDSIEQLLASIKNAAVFSGNTIVNGAPAINASLNIAKSETKVYTGEGVDSVYRVPIYYKLKVTNDGSKLTFTYTVTYVNPKTNDLGNISSMRPGYSIYNSGTSTQTMLTLGSDLGKPSGVKNYITDKNGRQVLSYNTSTMTTQGSGYTWGNGAQMNGFFAKKGYGLTSSWTVPITGTDTSFTFTPYAARTDRIGINYFNGGGKVVESSTT
# Legend:
# Assay in all cases: glycan array binding signal (z-score within array); higher = stronger binding
# Conditions in all cases: glycan notation: IUPAC condensed, linker removed
# [1] = biological target: Fuc(a1-2)Gal
# Outline: (§1)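 The Consortium for Functional Glycomics database supplied 3228 glycan arrays, of which those lacking an available protein sequence were dropped. The binding signal, a within-array Z-score, was averaged across arrays of the same protein sequence and across linkers. Negative scores can be read as non-binding.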
# [2] = biological target: Fuc(a1-2)Gal(b1-3)GalNAc
# Outline: as §1
# [3] = biological target: Fuc(a1-2)Gal(b1-3)GalNAc(a1-3)[Fuc(a1-2)]Gal(b1-4)Glc
# Outline: as §1
# [4] = biological target: Fuc(a1-2)Gal(b1-3)GalNAc(a1-3)[Fuc(a1-2)]Gal(b1-4)GlcNAc
# Outline: as §1
# [5] = biological target: Fuc(a1-2)Gal(b1-3)GalNAc(b1-3)Gal
# Outline: as §1
# [6] = biological target: Fuc(a1-2)Gal(b1-3)GalNAc(b1-3)Gal(a1-4)Gal(b1-4)Glc
# Outline: as §1
# [7] = biological target: Fuc(a1-2)Gal(b1-3)GalNAc(b1-4)[Neu5Ac(a2-3)]Gal(b1-4)Glc
# Outline: as §1
# [8] = biological target: Fuc(a1-2)Gal(b1-3)GlcNAc
# Outline: as §1
# [9] = biological target: Fuc(a1-2)Gal(b1-3)GlcNAc(b1-2)Man(a1-3)[Fuc(a1-2)Gal(b1-3)GlcNAc(b1-2)Man(a1-6)]Man(b1-4)GlcNAc(b1-4)GlcNAc
# Outline: as §1
# [10] = biological target: Fuc(a1-2)Gal(b1-3)GlcNAc(b1-2)Man(a1-3)[Fuc(a1-2)Gal(b1-3)GlcNAc(b1-2)Man(a1-6)]Man(b1-4)GlcNAc(b1-4)[Fuc(a1-6)]GlcNAc
# Outline: as §1
# [11] = biological target: Fuc(a1-2)Gal(b1-3)GlcNAc(b1-3)Gal(b1-4)Glc
# Outline: as §1
# [12] = biological target: Fuc(a1-2)Gal(b1-3)GlcNAc(b1-3)GalNAc
# Outline: as §1
# [13] = biological target: Fuc(a1-2)Gal(b1-3)GlcNAc(b1-3)[Fuc(a1-2)Gal(b1-3)GlcNAc(b1-6)]GalNAc
# Outline: as §1
# [14] = biological target: Fuc(a1-2)Gal(b1-3)GlcNAc(b1-3)[Gal(b1-4)GlcNAc(b1-6)]Gal(b1-4)Glc
# Outline: as §1
# [15] = biological target: Fuc(a1-2)Gal(b1-3)GlcNAc(b1-3)[Neu5Ac(a2-6)Gal(b1-4)GlcNAc(b1-6)]Gal(b1-4)Glc
# Outline: as §1
# [16] = biological target: Fuc(a1-2)Gal(b1-3)GlcNAc6S
# Outline: as §1
# [17] = biological target: Fuc(a1-2)Gal(b1-3)[Fuc(a1-4)]GlcNAc
# Outline: as §1
# [18] = biological target: Fuc(a1-2)Gal(b1-3)[Fuc(a1-4)]GlcNAc(b1-2)Man(a1-3)[Fuc(a1-2)Gal(b1-3)[Fuc(a1-4)]GlcNAc(b1-2)Man(a1-3)]Man(b1-4)GlcNAc(b1-4)GlcNAc
# Outline: as §1
# [19] = biological target: Fuc(a1-2)Gal(b1-3)[Fuc(a1-4)]GlcNAc(b1-2)Man(a1-3)[Fuc(a1-2)Gal(b1-3)[Fuc(a1-4)]GlcNAc(b1-2)Man(a1-6)]Man(b1-4)GlcNAc(b1-4)[Fuc(a1-6)]GlcNAc(b1-4)[Fuc(a1-6)]GlcNAc
# Outline: as §1
# [20] = biological target: Fuc(a1-2)Gal(b1-3)[Fuc(a1-4)]GlcNAc(b1-3)[Fuc(a1-3)[Gal(b1-4)]GlcNAc(b1-6)]Gal(b1-4)Glc
# Outline: as §1
# [21] = biological target: Fuc(a1-2)Gal(b1-3)[Fuc(a1-4)]GlcNAc(b1-3)[Gal(b1-4)GlcNAc(b1-6)]Gal(b1-4)Glc
# Outline: as §1
# [22] = biological target: Fuc(a1-2)Gal(b1-4)Glc
# Outline: as §1
# [23] = biological target: Fuc(a1-2)Gal(b1-4)Glc6S
# Outline: as §1
# [24] = biological target: Fuc(a1-2)Gal(b1-4)GlcNAc
# Outline: as §1
# [25] = biological target: Fuc(a1-2)Gal(b1-4)GlcNAc(b1-2)Man
# Outline: as §1
# [26] = biological target: Fuc(a1-2)Gal(b1-4)GlcNAc(b1-2)Man(a1-3)[Fuc(a1-2)Gal(b1-4)GlcNAc(b1-2)Man(a1-6)]Man(b1-4)GlcNAc(b1-4)GlcNAc
# Outline: as §1
# [27] = biological target: Fuc(a1-2)Gal(b1-4)GlcNAc(b1-2)Man(a1-3)[Fuc(a1-2)Gal(b1-4)GlcNAc(b1-2)Man(a1-6)]Man(b1-4)GlcNAc(b1-4)[Fuc(a1-6)]GlcNAc
# Outline: as §1
# [28] = biological target: Fuc(a1-2)Gal(b1-4)GlcNAc(b1-2)[Fuc(a1-2)Gal(b1-4)GlcNAc(b1-4)]Man(a1-3)[Fuc(a1-2)Gal(b1-4)GlcNAc(b1-2)Man(a1-6)]Man(b1-4)GlcNAc(b1-4)GlcNAc
# Outline: as §1
# [29] = biological target: Fuc(a1-2)Gal(b1-4)GlcNAc(b1-3)Gal(b1-4)GlcNAc
# Outline: as §1
# [30] = biological target: Fuc(a1-2)Gal(b1-4)GlcNAc(b1-3)Gal(b1-4)GlcNAc(b1-2)Man(a1-3)[Fuc(a1-2)Gal(b1-4)GlcNAc(b1-3)Gal(b1-4)GlcNAc(b1-2)Man(a1-6)]Man(b1-4)GlcNAc(b1-4)GlcNAc
# Outline: as §1
binder,measurement,setting,value
B1,glycan array binding signal (z-score),[1],0.412
same,glycan array binding signal (z-score),[2],-0.457
same,glycan array binding signal (z-score),[3],-0.346
same,glycan array binding signal (z-score),[4],-0.078
same,glycan array binding signal (z-score),[5],0.821
same,glycan array binding signal (z-score),[6],0.225
same,glycan array binding signal (z-score),[7],-0.481
same,glycan array binding signal (z-score),[8],-0.129
same,glycan array binding signal (z-score),[9],1.26
same,glycan array binding signal (z-score),[10],1.56
same,glycan array binding signal (z-score),[11],-0.537
same,glycan array binding signal (z-score),[12],-0.492
same,glycan array binding signal (z-score),[13],1.96
same,glycan array binding signal (z-score),[14],-0.516
same,glycan array binding signal (z-score),[15],-0.417
same,glycan array binding signal (z-score),[16],0.256
same,glycan array binding signal (z-score),[17],-0.525
same,glycan array binding signal (z-score),[18],1.5
same,glycan array binding signal (z-score),[19],-0.364
same,glycan array binding signal (z-score),[20],-0.531
same,glycan array binding signal (z-score),[21],-0.542
same,glycan array binding signal (z-score),[22],-0.019
same,glycan array binding signal (z-score),[23],0.611
same,glycan array binding signal (z-score),[24],-0.115
same,glycan array binding signal (z-score),[25],0.361
same,glycan array binding signal (z-score),[26],-0.472
same,glycan array binding signal (z-score),[27],-0.124
same,glycan array binding signal (z-score),[28],-0.122
same,glycan array binding signal (z-score),[29],-0.334
same,glycan array binding signal (z-score),[30],-0.077
